The source of these data is the supplement of paper PMC4604168 (melanoma cell lines).

Structures are written as SMILES. This is one part of the list. Most values come without repeats; read them as rough.
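Further: cells treated in 1,536-well plates, then fixed and DAPI-stained, with nuclei counted from automated high-throughput microscope images.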

The subject of this experiment is A101D. Put plainly: cell count relative to DMSO control; melanoma cells; higher = more viable cells. Conditions: library dose: standard library concentration; 72 h.
In the case of `O=C(Nc1cc(C(F)(F)F)cc(C(F)(F)F)c1)c1cc(Cl)ccc1O` + COCC[n+]1c2c(n(Cc3cnccn3)c1C)C(=O)c1ccccc1C2=O [YM155] (first compound 0.08 µM, partner dose 0.002 µM), the cell count is 86.2%.

The molecule `O=C(Nc1cc(C(F)(F)F)cc(C(F)(F)F)c1)c1cc(Cl)ccc1O` + O=C(O)c1ccc(-c2c[nH]c3ncc(-c4ccccc4)cc23)cc1C1CCCC1 [GSK650394] (first compound 0.08 µM, partner dose 0.8 µM) yielded a cell count of 81.8%.

Molecule `O=C(Nc1cc(C(F)(F)F)cc(C(F)(F)F)c1)c1cc(Cl)ccc1O` + OCc1c[nH]c2ccccc12 [Indole-3-carbinol] (first compound 0.08 µM, partner dose 4 µM) came in with a cell count of 112%.

As for `O=C(Nc1cc(C(F)(F)F)cc(C(F)(F)F)c1)c1cc(Cl)ccc1O` + Cc1ccc(Nc2nccc(N(C)c3ccc4c(C)n(C)nc4c3)n2)cc1S(N)(=O)=O [Pazopanib] (first compound 0.08 µM, partner dose 2 µM), the cell count amounted to 99.2%.

On to `O=C(Nc1ccccc1)c1cc([N+](=O)[O-])ccc1Cl` + COc1ccc(-c2ccc3c(N4CCOCC4)nc(N4C[C@@H](C)O[C@@H](C)C4)nc3n2)cc1CO [KU0063794] (first compound 10 µM, partner dose 0.1 µM), for which the cell count came to 93.8%.

Consider `O=C(Nc1cc(C(F)(F)F)cc(C(F)(F)F)c1)c1cc(Cl)ccc1O` + Nc1cccc2c1CN(C1CCC(=O)NC1=O)C2=O [lenalidomide] (first compound 0.08 µM, partner dose 5 µM), for which the cell count was found to be 129%.
